From US12318380B2, “Treatment of demyelinating diseases” (priority 2018, dated 2025)

Assays:
[1] = system: experimental autoimmune encephalomyelitis (EAE) model of MS; test: EAE model of MS, daily disease score, treatment from day 17; assay type: in vivo, female C57BL/6 mice
[2] = system: experimental autoimmune encephalomyelitis (EAE) model of MS; test: EAE model of MS in male mice, treatment from disease onset; assay type: in vivo, male C57BL/6 mice; conditions: 0.01 mg/kg i.p. daily from disease onset
[3] = system: experimental autoimmune encephalomyelitis (EAE) model of MS
[4] = treated before disease onset, 0.3, 0.1 or 0.03 mg/kg i.p. daily from day 17
[5] = 0.003-0.1 mg/kg i.p. daily from disease onset
[6] = nalfurafine 0.01 mg/kg i.p. daily, clemastine fumarate 10 mg/kg i.p., from disease onset

## CN(C(=O)/C=C/c1ccoc1)[C@@H]1CC[C@@]2(O)[C@H]3Cc4ccc(O)c5c4[C@@]2(CCN3CC2CC2)[C@H]1O5 [nalfurafine, (E)-N-[(4R,4aS,7R,7aR,12bS)-3-(cyclopropylmethyl)-4a,9-dihydroxy-1,2,4,5,6,7,7a,13-octahydro-4,12-methanobenzofuro[3,2-e]isoquinoline-7-yl]-3-(furan-3-yl)-N-methylprop-2-enamide]
[1]; 0.3, 0.1, 0.03 or 0.01 mg/kg i.p. daily from day 17, over 45 days
  disease score (0-5), recovery from paralysis: recovery from paralysis, which is complete at some doses (0.1 and 0.03 mg/kg)
[1]; 0.3, 0.1 or 0.03 mg/kg i.p. daily from day 17, by day 45
  total disability (AUC of daily disease score): significantly lower total disability
[1]; doses of 0.03 and 0.1 mg/kg i.p. daily from day 17
  total disability (AUC of daily disease score): greatest effect at reducing disability
[1]; i.p. daily from day 17 (Example 1)
  dose at which nalfurafine shows the most rapid recovery: 0.1 mg/kg
[1]; [4]
  onset of disease: did not alter the onset of disease
  recovery from paralysis (disease score): rapid recovery from paralysis compared to vehicle-treated mice
[2]
  disease score, functional recovery from paralysis: effective at enabling functional recovery from paralysis in both females and males
  number of days in recovery: enables a sustained functional recovery
  percentage of mice recovered (score ≤0.5 by day 23): promotes full recovery
[3]; 0.01 mg/kg i.p. daily for only four days from disease onset
  disease score, recovery: does not enhance recovery
[3]; 0.01 mg/kg i.p. daily throughout the experimental course
  disease score, recovery: does enhance recovery effectively
[3]; [5]
  number of days in recovery: enables a sustained functional recovery
  percentage of mice recovered (score ≤0.5 by day 23 post treatment initiation): 0.003-0.1 mg/kg all show a significant effect
[3]; 0.3, 0.1, 0.03, 0.01 or 0.003 mg/kg i.p. daily from disease onset
  peak disease score during the first EAE episode: no difference in peak disease score was found at any dose
[3]; 0.3, 0.1, 0.03, 0.01 or 0.003 mg/kg i.p. daily from disease onset (score ≥1)
  disease score, recovery from paralysis: recovery from paralysis, which is complete at some doses (0.01 and 0.03 mg/kg)
[3]; i.p. daily from disease onset
  Mouse dose for EAE (effective dose shown in FIG. 10): 3 µg/kg/day
[3]; i.p. daily from disease onset (Example 10)
  dose at which nalfurafine shows the most rapid recovery: 0.01 mg/kg
[3]; in the examples described, except the short 4-day course
  disease score reached (full recovery): < 0.5
[3]; [6]
  number of days in recovery: have a sustained recovery
  percentage of mice recovered (score <0.5 by day 23): all of the mice recover
[3]; nalfurafine 0.01 mg/kg i.p. daily, clemastine fumarate 10 mg/kg i.p., from disease onset, separate experiments
  disease score, functional recovery: superior to clemastine fumarate in this model

Where two headings read alike, the source gives them in different places.
